Assay results as given in paper PMC4336329 (PLoS ONE, 2015).
Hit rate of the full screen: of about 310,000 compounds, about 14,000 (4.5%) showed an effect of 50% or more. Effects have a minus sign here. The list shows a part of the results.

Target: human ether-à-go-go-related gene (hERG) potassium channel (human, UniProt Q12809)
Test: primary screen, population patch clamp on CHO cells stably expressing hERG
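Also: peak tail current of the secondary pulse compared with the same well before compound.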

Sequence of human ether-à-go-go-related gene (hERG) potassium channel (Q12809 whole entry, looked up): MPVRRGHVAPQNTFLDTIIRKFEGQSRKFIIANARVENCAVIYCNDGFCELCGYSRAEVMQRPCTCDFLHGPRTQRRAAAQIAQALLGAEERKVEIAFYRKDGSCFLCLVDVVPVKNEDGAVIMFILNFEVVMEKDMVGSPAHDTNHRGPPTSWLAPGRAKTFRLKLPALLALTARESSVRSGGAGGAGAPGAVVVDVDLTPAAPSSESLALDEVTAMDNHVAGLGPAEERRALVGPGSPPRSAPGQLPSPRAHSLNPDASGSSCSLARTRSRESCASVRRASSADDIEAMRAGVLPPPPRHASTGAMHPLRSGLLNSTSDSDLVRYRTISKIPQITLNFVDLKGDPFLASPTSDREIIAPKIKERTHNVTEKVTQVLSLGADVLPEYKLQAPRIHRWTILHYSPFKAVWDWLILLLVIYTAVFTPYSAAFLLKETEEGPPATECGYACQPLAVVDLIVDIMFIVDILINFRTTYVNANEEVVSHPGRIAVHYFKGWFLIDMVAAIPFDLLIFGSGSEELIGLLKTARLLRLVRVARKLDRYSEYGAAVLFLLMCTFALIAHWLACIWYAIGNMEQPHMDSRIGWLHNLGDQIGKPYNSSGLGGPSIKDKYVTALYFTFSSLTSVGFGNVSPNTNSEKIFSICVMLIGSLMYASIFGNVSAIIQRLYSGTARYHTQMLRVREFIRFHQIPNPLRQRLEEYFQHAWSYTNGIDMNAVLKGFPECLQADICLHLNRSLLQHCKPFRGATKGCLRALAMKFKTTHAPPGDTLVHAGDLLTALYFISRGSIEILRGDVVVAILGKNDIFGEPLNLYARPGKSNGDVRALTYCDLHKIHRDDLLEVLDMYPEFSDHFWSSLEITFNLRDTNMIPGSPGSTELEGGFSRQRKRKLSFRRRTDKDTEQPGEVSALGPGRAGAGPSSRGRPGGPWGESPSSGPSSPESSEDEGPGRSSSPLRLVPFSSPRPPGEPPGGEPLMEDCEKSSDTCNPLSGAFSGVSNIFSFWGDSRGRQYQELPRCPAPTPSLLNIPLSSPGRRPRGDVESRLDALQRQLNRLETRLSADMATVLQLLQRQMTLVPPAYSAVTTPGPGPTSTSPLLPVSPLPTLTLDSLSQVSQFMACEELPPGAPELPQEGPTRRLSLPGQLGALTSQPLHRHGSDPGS

Row | SMILES | hERG current change (%, negative = inhibition) at 10uM [%]
1 | Cc1cc(Br)cc(C=Nc2ccc(N3CCOCC3)cc2)c1O | 13.6
2 | Cc1cc(Br)ccc1NC(=O)CNC(=O)CNc1cccc([N+](=O)[O-])c1 | -13.6
3 | COc1ccccc1N1CCN(C(=O)CN(C)S(=O)(=O)c2ccc3c(c2)c(=O)n(C)c(=O)n3C)CC1 | 15.2
4 | CCOc1ccc(-n2cc(C(=O)NCCOC)c3cc(OC)c(OC)cc3c2=O)cc1 | 12.6
5 | O=C(CCC1CCCCC1)Nc1ccc(C(=O)c2ccncc2)cc1 | -12.2
6 | COC(=O)[C@@H](NC(=O)NC1CCCc2ccccc21)C(C)C (stereo partly drawn) | 9.47
7 | Cc1onc(-c2ccccc2Cl)c1C(=O)Nc1ccccc1C(N)=O | -1.89
8 | COc1ccccc1Cn1c(SCC#N)nc2cc(C(=O)N3CCC4(CC3)OCCO4)ccc2c1=O | -0.426
9 | Cc1nn(C)c(C)c1C1C(C#N)=C(N)OC2=C1C(=O)CC(C)(C)C2 (stereo not drawn) | -12.3
10 | O=C(CCc1nc2ccccc2s1)NCc1ccccc1F | 23.7
11 | NC(=O)CSc1nc2scc(-c3ccco3)c2c(=O)n1-c1ccccc1 | -4.9
12 | CCOc1ccc(NC(=S)NCc2ccc3[nH]c(C)cc3c2)cc1 | 23.5
13 | Nn1c(SCC(=O)NCc2ccccc2)nncc1=O | 6.47
14 | Cc1ccc(S(=O)(=O)N(C)CC(=O)NNC(=O)Cc2cccc(F)c2)cc1 | -0.829
15 | Cc1cc(C)cc(-n2ncc3c2CCCC3NC(=O)c2cc(C)[nH]n2)c1 (stereo not drawn) | -67.5
16 | Fc1ccc(Nc2nc(-c3cccnc3)cs2)cc1 | 20.6
17 | Cn1cc(CN2CCC(Oc3ccc(C(=O)N4CCCCC4)cc3)CC2)cn1 | 8.81
18 | CCn1c(SCc2ccc(F)cc2)nc2ccccc2c1=O | 24.9
19 | CCn1cc(C(=O)N2CCN(C(=O)c3ccco3)CC2)c2cc(OC)c(OC)cc2c1=O | 7.72
20 | COc1cccc(C(=O)N[C@@H](CCSC)c2nc3ccccc3[nH]2)c1 | 3.84
21 | O=C1c2ccccc2C(=O)N1c1n[nH]c(CCc2ccccc2)n1 | -4.06
22 | O=C(CCSCc1ccc(Cl)cc1)NCCC1=CCCCC1 | 11.4
23 | CCOC(=O)C1=C(N)n2c(s/c(=C\c3cccs3)c2=O)=C(C(=O)OCC)C1c1cccs1 (stereo not drawn) | 7.19
24 | CCCCC(=O)Nc1nnc(CCOC)s1 | -6.9
